In the supplement of paper PMC4996465:

What was measured:
KB3-1 [1] = assay: viability (% of DMSO control); higher = more viable cells
Method: (§1)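 Eleven-dose screen of the NCATS MIPE 3 library on cells without co-treatment; CellTiter-Glo after 48 h, as % of DMSO wells.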

Nalm-6 [2] = assay: as above
Method: as §1

KB3-1 [3] = assay: log AC50 of viability decrease (48 h) (log10 M); higher = less potent
Method: (§2)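 Eleven-dose screen of the NCATS MIPE 3 library on cells without co-treatment; CellTiter-Glo after 48 h. AC50 from the curve fit; only inhibitory curves of the better fit classes are listed.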

Nalm-6 [4] = assay: as above
Method: as §2

SMILES	viability (KB3-1 [1]; 0.00078 µM)	viability (KB3-1 [1]; 0.00234 µM)	viability (KB3-1 [1]; 0.00702 µM)	viability (KB3-1 [1]; 0.0211 µM)	viability (KB3-1 [1]; 0.0632 µM)	viability (KB3-1 [1]; 0.19 µM)	viability (KB3-1 [1]; 0.569 µM)	viability (KB3-1 [1]; 1.71 µM)	viability (KB3-1 [1]; 5.12 µM)	viability (KB3-1 [1]; 15.4 µM)	viability (KB3-1 [1]; 46.1 µM)	viability (Nalm-6 [2]; run: 1, 0.00078 µM)	viability (Nalm-6 [2]; run: 1, 0.00234 µM)	viability (Nalm-6 [2]; run: 1, 0.00702 µM)	viability (Nalm-6 [2]; run: 1, 0.0211 µM)	viability (Nalm-6 [2]; run: 1, 0.0632 µM)	viability (Nalm-6 [2]; run: 1, 0.19 µM)	viability (Nalm-6 [2]; run: 1, 0.569 µM)	viability (Nalm-6 [2]; run: 1, 1.71 µM)	viability (Nalm-6 [2]; run: 1, 5.12 µM)	viability (Nalm-6 [2]; run: 1, 15.4 µM)	viability (Nalm-6 [2]; run: 1, 46.1 µM)	viability (Nalm-6 [2]; run: 2, 0.00078 µM)	viability (Nalm-6 [2]; run: 2, 0.00234 µM)	viability (Nalm-6 [2]; run: 2, 0.00702 µM)	viability (Nalm-6 [2]; run: 2, 0.0211 µM)	viability (Nalm-6 [2]; run: 2, 0.0632 µM)	viability (Nalm-6 [2]; run: 2, 0.19 µM)	viability (Nalm-6 [2]; run: 2, 0.569 µM)	viability (Nalm-6 [2]; run: 2, 1.71 µM)	viability (Nalm-6 [2]; run: 2, 5.12 µM)	viability (Nalm-6 [2]; run: 2, 15.4 µM)	viability (Nalm-6 [2]; run: 2, 46.1 µM)	log AC50 of viability decrease (KB3-1 [3])	log AC50 of viability decrease (Nalm-6 [4]; run: 1)	log AC50 of viability decrease (Nalm-6 [4]; run: 2)
CC(C)n1c(/C=C/[C@H](O)C[C@H](O)CC(=O)[O-])c(-c2ccc(F)cc2)c2ccccc21 [Fluvastatin]	91.4%	99%	98.1%	101%	97.8%	101%	99.8%	95.8%	84.3%	39.5%	29.9%	90.6%	94.3%	96.8%	100%	89.5%	106%	112%	99.8%	85.2%	54.5%	55%	94.7%	101%	94.2%	97.8%	96.3%	102%	95.8%	95.4%	78%	25.5%	17.5%	-5.03	-5.18	-5.08
COc1cc2c(Oc3ccc(NC(=O)C4(C(=O)Nc5ccc(F)cc5)CC4)cc3F)ccnc2cc1OCCCN1CCOCC1 [Foretinib]	106%	106%	108%	106%	103%	104%	105%	85.9%	69.2%	54.2%	0.323%	126%	124%	126%	131%	130%	124%	118%	75.6%	61%	44.6%	0.504%	111%	110%	112%	113%	112%	110%	108%	89.9%	80.9%	60.8%	1.48%	-4.78	-5.28	-4.78
CC[C@@H](C)[C@H](NC(=O)[C@H](CC1CCCCC1)NC(=O)c1ccno1)C(=O)N1CCC2(CCc3ccccc32)CC1 [GB 83]	102%	99.5%	102%	101%	103%	98%	101%	100%	95.3%	82.9%	68.1%	116%	96%	105%	107%	122%	118%	112%	103%	99.9%	78.5%	63.6%	102%	105%	108%	106%	111%	107%	107%	103%	103%	96.6%	91.7%	-4.78	-4.93	
CN(C)C1=C(Br)C=C(C=C1)C\2NC3=C(\C4=C2C(=O)CC(C)(C)C4)C5=CC=CC=C5C=C3 (configuration not stated) [GLS968]	97.4%	98.4%	98%	94.3%	104%	96.5%	101%	95.6%	95.4%	75.9%	29.7%	72.8%	86%	94.4%	95.1%	95.8%	104%	92.4%	88.1%	89.3%	48.7%	38.5%	101%	94.4%	99%	96.4%	101%	98.7%	104%	105%	96.9%	56.1%	40.9%	-4.73	-4.93	-4.93
O=C1[C@H](Cc2ccc(O)cc2)N2C(=O)CCN(C(=O)NCc3ccccc3)[C@H]2CN1Cc1cccc2ccccc12 [ICG-001]	101%	97.4%	99.9%	101%	95.1%	103%	99.4%	68.6%	49.3%	41.8%	32.9%	115%	107%	113%	114%	117%	92.8%	74.9%	44.3%	36.3%	29.4%	12.3%	109%	113%	109%	114%	106%	102%	97.8%	66.5%	57%	50.2%	7.99%	-5.63	-6.08	-5.18
CCN(c1ccccc1)c1cc(NC)[n+](C)c(C)n1 [ICI-D7288]	102%	107%	108%	102%	105%	103%	102%	102%	99.6%	92.1%	69.6%	100%	114%	106%	105%	106%	94%	97.6%	98.4%	90.2%	76.5%	52.3%	99.4%	106%	104%	106%	104%	109%	106%	101%	99.8%	91.1%	73.2%	-4.73	-4.83	-4.73
CCCCc1ccc(NS(=O)(=O)c2ccc(C)c(C(=O)N3CCN(c4cccc(C)c4C)CC3)c2)cc1 [IDH-001]	95.5%	99.2%	99%	101%	104%	102%	103%	107%	103%	88.2%	6.45%	84.9%	89.7%	104%	105%	107%	102%	120%	120%	109%	79.6%	6.04%	96.5%	96.1%	101%	102%	113%	104%	110%	102%	109%	75.7%	4.31%	-4.63	-4.68	-4.68
O=C(Nc1cc(C(F)(F)F)cc(C(F)(F)F)c1)c1cc(Cl)ccc1O [IMD-0354]	96.2%	101%	96.7%	86.6%	56.5%	41.9%	17.4%	37.6%	21.4%	15.7%	12.1%	104%	101%	97.5%	107%	83.8%	59.7%	7.65%	4.04%	1.88%	1.46%	0.123%	106%	110%	107%	109%	86.9%	53.8%	4.73%	2.35%	1.33%	0.398%	0.679%	-7.18	-6.68	-6.78
Nc1ccc(C(=O)c2cc3c(ccc4ccccc43)[nH]2)cc1 [IPFK2]	94.5%	101%	102%	95.3%	99.3%	96.8%	68%	53.1%	32.7%	34.3%	14.3%	79.7%	91.4%	97.6%	106%	96.6%	104%	83.5%	48.6%	20%	17%	6.98%	95.3%	99.9%	101%	107%	109%	101%	66.2%	24%	10.7%	11.1%	4.86%	-5.93	-5.83	-6.13
CC(C)(C)OC(=O)Nc1ccc(-c2cc(C(=O)NCCCCCCC(=O)NO)no2)cc1 [ISOX]	103%	105%	105%	99.2%	91.5%	85.1%	61.4%	46.8%	30.1%	25%	6.13%	113%	113%	121%	104%	84.3%	45.9%	3.68%	2.58%	2.24%	1.89%	2.25%	112%	111%	110%	89.4%	68.9%	36.7%	6.21%	2.83%	2.64%	1.91%	3.06%	-5.93	-6.88	-7.03
Cc1cc(/C=c2/sc3nc4ccccc4n3c2=O)c(C)n1-c1ccccc1 [ITX3]	103%	106%	107%	103%	105%	109%	101%	103%	98.9%	77.2%	72.2%	112%	120%	128%	123%	129%	134%	125%	119%	105%	92.5%	49.9%	107%	111%	103%	111%	106%	107%	105%	102%	94.8%	85.3%	47.2%	-5.03	-4.78	-4.73
CC(C)(N)C(=O)N[C@H](COCc1ccccc1)C(=O)N1CCC2(CC1)CN([S+](C)(=O)[O-])c1ccccc12 [Ibutamoren mesilate]	98.3%	96.6%	95.1%	97.2%	95.2%	91.2%	98.6%	102%	96.8%	60.9%	66.4%	77.6%	87.8%	101%	106%	112%	100%	99.9%	122%	91.4%	74.5%	51.5%	101%	104%	100%	102%	98.9%	104%	99.6%	103%	98%	85.6%	55.8%	-5.08		-4.73
CC(C)[C@@H](N(CCCN)C(=O)C1=CC=C(C)C=C1)C/2=N/C3=CC(=CC=C3C(=O)N2CC4=CC=CC=C4)Cl [Ispinesib]	103%	101%	38.5%	27.4%	22.8%	32.5%	24.3%	24.4%	16.5%	15.2%	-0.24%	103%	70.7%	12.3%	11.2%	11.3%	9.21%	10.4%	11.4%	6.9%	4.5%	2.37%	104%	94.9%	9.9%	8.74%	9.8%	7.34%	6.08%	7.23%	5.13%	-0.0347%	1.43%	-8.28	-8.53	-8.43
CCC(C)n1ncn(-c2ccc(N3CCN(c4ccc(OC[C@H]5CO[C@](Cn6cncn6)(c6ccc(Cl)cc6Cl)O5)cc4)CC3)cc2)c1=O (some centres not stated) [Itraconazole]	106%	111%	111%	108%	109%	107%	109%	101%	97.9%	87.8%	64.9%	104%	105%	106%	111%	104%	119%	107%	47.6%	25.8%	9.54%	12.4%	101%	99.8%	102%	103%	105%	108%	77.4%	13.5%	6.3%	7.21%	9.51%	-4.78	-5.83	-6.13

Viability of KB3-1 and Nalm-6 cells after 48 h of drug alone (CellTiter-Glo), 11 doses over about 4.5 log units. % of DMSO wells, lower = more cell loss; AC50 from the fitted curve, lower = more potent. No active / inactive call. Nalm-6 was screened in two runs. AC50 is listed only for well-fitted inhibitory curves. KB3-1 is a HeLa-derived carcinoma line, Nalm-6 a B-cell precursor leukaemia line.
